Target: T1, Human heat shock transcription factor 1 (Hsf1), wild type (human, UniProt Q00613 1-529)
T1 sequence: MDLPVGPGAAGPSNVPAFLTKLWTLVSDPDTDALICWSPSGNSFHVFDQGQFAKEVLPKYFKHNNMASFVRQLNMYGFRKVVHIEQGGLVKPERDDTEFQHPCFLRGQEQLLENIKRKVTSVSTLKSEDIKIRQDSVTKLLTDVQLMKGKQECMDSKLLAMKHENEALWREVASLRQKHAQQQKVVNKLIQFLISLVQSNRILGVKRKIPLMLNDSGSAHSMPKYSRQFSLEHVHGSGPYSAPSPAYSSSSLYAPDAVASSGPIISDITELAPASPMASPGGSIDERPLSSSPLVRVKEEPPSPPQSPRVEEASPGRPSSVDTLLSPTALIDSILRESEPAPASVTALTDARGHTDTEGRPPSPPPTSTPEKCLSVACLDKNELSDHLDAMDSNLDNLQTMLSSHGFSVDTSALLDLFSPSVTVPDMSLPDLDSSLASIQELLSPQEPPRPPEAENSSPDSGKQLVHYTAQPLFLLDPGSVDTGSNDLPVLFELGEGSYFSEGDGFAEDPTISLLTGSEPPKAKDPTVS
Test: HDX-MS

B1: Human DnaJB1/Hdj1, wild type (natural protein)
chain: MGKDYYQTLGLARGASDEEIKRAYRRQALRYHPDKNKEPGAEEKFKEIAEAYDVLSDPRKREIFDRYGEEGLKGSGPSGGSGGGANGTSFSYTFHGDPHAMFAEFFGGRNPFDTFFGQRNGEEGMDIDDPFSGFPMGMGGFTNVNFGRSRSAQEPARKKQ[about 150 residues not written out]PERIPQTSRTVLEQVLPI
binding result: binds
